Binding signal data for 30 molecules are collected here from paper PMC9911399, “Two distinct binding modes provide the RNA-binding protein RbFox with extraordinary sequence specificity”.

Substitutions are numbered along the chain they refer to; changes in the protein carry UniProt numbers. This is one part of the list.

Sequences and labels used below:
B1: UUACGUA (DNA:RNA)
RNA: GGGAGACCGGAAUUCAGAUUGUCCUUACGUAUUAAAUCCCGUCGUAGCCACCA
DNA 1: CAATCTGAATTCCGGTCTCCC
DNA 2: TGGTGGCTACGACGGGATT
B2: UCGGUCU (DNA:RNA)
RNA: B1 RNA with U26C, A27G, C28G, G29U, U30C, A31U
DNA 1: CAATCTGAATTCCGGTCTCCC
DNA 2: TGGTGGCTACGACGGGATT
B3: AAACUUC (DNA:RNA)
RNA: B1 RNA with U25A, U26A, G29U, A31C
DNA 1: CAATCTGAATTCCGGTCTCCC
DNA 2: TGGTGGCTACGACGGGATT
B4: CAGGUGU (DNA:RNA)
RNA: GGGAGACCGGAAUUCAGAUUGUCCCAGGUGUUUAAAUCCCGUCGUAGCCACCA
DNA 1: CAATCTGAATTCCGGTCTCCC
DNA 2: TGGTGGCTACGACGGGATT
B5: GAAGGGA (DNA:RNA)
RNA: B4 RNA with C25G, G27A, U29G, U31A
DNA 1: CAATCTGAATTCCGGTCTCCC
DNA 2: TGGTGGCTACGACGGGATT
B6: UUACCAA (DNA:RNA)
RNA: B1 RNA with G29C, U30A
DNA 1: CAATCTGAATTCCGGTCTCCC
DNA 2: TGGTGGCTACGACGGGATT
B7: AGUAAAU (DNA:RNA)
RNA: B4 RNA with C25A, A26G, G27U, G28A, U29A, G30A
DNA 1: CAATCTGAATTCCGGTCTCCC
DNA 2: TGGTGGCTACGACGGGATT
B8: GCGCGUU (DNA:RNA)
RNA: B1 RNA with U25G, U26C, A27G, A31U
DNA 1: CAATCTGAATTCCGGTCTCCC
DNA 2: TGGTGGCTACGACGGGATT
B9: UAUGUUG (DNA:RNA)
RNA: B4 RNA with C25U, G27U, G30U, U31G
DNA 1: CAATCTGAATTCCGGTCTCCC
DNA 2: TGGTGGCTACGACGGGATT
B10: AUGCCCC (DNA:RNA)
RNA: B1 RNA with U25A, A27G, G29C, U30C, A31C
DNA 1: CAATCTGAATTCCGGTCTCCC
DNA 2: TGGTGGCTACGACGGGATT
B11: CACUUAU (DNA:RNA)
RNA: B4 RNA with G27C, G28U, G30A
DNA 1: CAATCTGAATTCCGGTCTCCC
DNA 2: TGGTGGCTACGACGGGATT
B12: CAGGAGU (DNA:RNA)
RNA: B4 RNA with U29A
DNA 1: CAATCTGAATTCCGGTCTCCC
DNA 2: TGGTGGCTACGACGGGATT
B13: CAUGCCU (DNA:RNA)
RNA: B4 RNA with G27U, U29C, G30C
DNA 1: CAATCTGAATTCCGGTCTCCC
DNA 2: TGGTGGCTACGACGGGATT
B14: CCCCGAU (DNA:RNA)
RNA: B4 RNA with A26C, G27C, G28C, U29G, G30A
DNA 1: CAATCTGAATTCCGGTCTCCC
DNA 2: TGGTGGCTACGACGGGATT
B15: GUCCACC (DNA:RNA)
RNA: B1 RNA with U25G, A27C, G29A, U30C, A31C
DNA 1: CAATCTGAATTCCGGTCTCCC
DNA 2: TGGTGGCTACGACGGGATT
B16: AGGGACG (DNA:RNA)
RNA: B4 RNA with C25A, A26G, U29A, G30C, U31G
DNA 1: CAATCTGAATTCCGGTCTCCC
DNA 2: TGGTGGCTACGACGGGATT
B17: AGGCUAU (DNA:RNA)
RNA: B4 RNA with C25A, A26G, G28C, G30A
DNA 1: CAATCTGAATTCCGGTCTCCC
DNA 2: TGGTGGCTACGACGGGATT
B18: CCAUGAC (DNA:RNA)
RNA: B1 RNA with U25C, U26C, C28U, U30A, A31C
DNA 1: CAATCTGAATTCCGGTCTCCC
DNA 2: TGGTGGCTACGACGGGATT
B19: GCUGUUG (DNA:RNA)
RNA: B4 RNA with C25G, A26C, G27U, G30U, U31G
DNA 1: CAATCTGAATTCCGGTCTCCC
DNA 2: TGGTGGCTACGACGGGATT
B20: AGGAUUA (DNA:RNA)
RNA: B4 RNA with C25A, A26G, G28A, G30U, U31A
DNA 1: CAATCTGAATTCCGGTCTCCC
DNA 2: TGGTGGCTACGACGGGATT
B21: UGGUUAG (DNA:RNA)
RNA: B4 RNA with C25U, A26G, G28U, G30A, U31G
DNA 1: CAATCTGAATTCCGGTCTCCC
DNA 2: TGGTGGCTACGACGGGATT
B22: UGGGCUG (DNA:RNA)
RNA: B4 RNA with C25U, A26G, U29C, G30U, U31G
DNA 1: CAATCTGAATTCCGGTCTCCC
DNA 2: TGGTGGCTACGACGGGATT
B23: CGGACAA (DNA:RNA)
RNA: B4 RNA with A26G, G28A, U29C, G30A, U31A
DNA 1: CAATCTGAATTCCGGTCTCCC
DNA 2: TGGTGGCTACGACGGGATT
B24: ACCCGUC (DNA:RNA)
RNA: B1 RNA with U25A, U26C, A27C, A31C
DNA 1: CAATCTGAATTCCGGTCTCCC
DNA 2: TGGTGGCTACGACGGGATT
B25: GGCAACG (DNA:RNA)
RNA: GGGAGACCGGAAUUCAGAUUGUCCGGCAACGUUAAAUCCCGUCGUAGCCACCA
DNA 1: CAATCTGAATTCCGGTCTCCC
DNA 2: TGGTGGCTACGACGGGATT
B26: CCCUACG (DNA:RNA)
RNA: B25 RNA with G25C, G26C, A28U
DNA 1: CAATCTGAATTCCGGTCTCCC
DNA 2: TGGTGGCTACGACGGGATT
B27: GAUGAAG (DNA:RNA)
RNA: B25 RNA with G26A, C27U, A28G, C30A
DNA 1: CAATCTGAATTCCGGTCTCCC
DNA 2: TGGTGGCTACGACGGGATT
B28: UACUGGU (DNA:RNA)
RNA: B4 RNA with C25U, G27C, G28U, U29G
DNA 1: CAATCTGAATTCCGGTCTCCC
DNA 2: TGGTGGCTACGACGGGATT
B29: AAAUUUC (DNA:RNA)
RNA: B4 RNA with C25A, G27A, G28U, G30U, U31C
DNA 1: CAATCTGAATTCCGGTCTCCC
DNA 2: TGGTGGCTACGACGGGATT
B30: GUAUACU (DNA:RNA)
RNA: B25 RNA with G26U, C27A, A28U, G31U
DNA 1: CAATCTGAATTCCGGTCTCCC
DNA 2: TGGTGGCTACGACGGGATT

The assay has as its target T1, RBFOX1 RRM RbFoxmut (Fox-RRM*) (Homo sapiens, UniProt Q9NWB1 109-208, R118D;E147R;N151S;E152T).
T1 sequence: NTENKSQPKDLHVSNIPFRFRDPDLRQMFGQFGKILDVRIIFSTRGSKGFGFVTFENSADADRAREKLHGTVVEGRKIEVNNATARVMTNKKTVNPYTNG
The experiment in a line: EMSA; HiTS-Eq, 1 nM pool, 10 min; buffer printed only for the single-RNA assays: 10 mM Tris pH 7.5, 150 mM NaCl, 3.4 mM EDTA, 0.001% NP-40, 30 C. The settings on record: tags: His6 N-terminal (pET28a); label: 5' 32P. The procedure, abridged: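 Purified RbFox RRM, wild type or mutant, was incubated for 10 min in 50 µL with 1 nM of a 5′-radiolabelled RNA pool carrying 7 randomized nucleotides, whose flanks were annealed to DNA oligonucleotides, over a series of increasing protein concentrations. Unbound RNA was resolved on 8% native PAGE, cut out, reverse-transcribed, barcoded by PCR and sequenced on an Illumina HiSeq 2500. Relative association constants were derived from changes in read counts for each RNA species versus the control reaction and normalised to the cognate motif.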
(In EMSA bound probe runs differently from free probe, usually more slowly.)
Regarding B1, the binding signal was 0.139 KA relative to UGCAUGU.
As for B2, the binding signal was 0.078 KA relative to UGCAUGU.
To B3 belongs 0.043 KA relative to UGCAUGU; to B4, 0.147 KA relative to UGCAUGU; to B5, 0.0617 KA relative to UGCAUGU.
The same measure for B6: 0.0792 KA relative to UGCAUGU; for B7: 0.0806 KA relative to UGCAUGU.
To B8 belongs 0.105 KA relative to UGCAUGU; to B9, 0.16 KA relative to UGCAUGU; to B10, 0.0672 KA relative to UGCAUGU.
Consider B11, for which the binding signal was 0.137 KA relative to UGCAUGU.
The same measure for B12: 0.165 KA relative to UGCAUGU; for B13: 0.112 KA relative to UGCAUGU.
On to B14, for which the binding signal is 0.0971 KA relative to UGCAUGU.
The same measure for B15: 0.0734 KA relative to UGCAUGU.
The same measure for B16: 0.119 KA relative to UGCAUGU; for B17: 0.0829 KA relative to UGCAUGU; for B18: 0.119 KA relative to UGCAUGU.
The same measure for B19: 0.152 KA relative to UGCAUGU; for B20: 0.133 KA relative to UGCAUGU; for B21: 0.171 KA relative to UGCAUGU.
For the molecule B22, the binding signal was 0.462 KA relative to UGCAUGU.
With B23, the binding signal is 0.057 KA relative to UGCAUGU.
Take B24: the binding signal was 0.0923 KA relative to UGCAUGU.
To B25 belongs 0.1 KA relative to UGCAUGU; to B26, 0.113 KA relative to UGCAUGU.
The same measure for B27: 0.104 KA relative to UGCAUGU.
Consider B28, for which the binding signal is 0.103 KA relative to UGCAUGU.
The same measure for B29: 0.08 KA relative to UGCAUGU; for B30: 0.137 KA relative to UGCAUGU.
